PubChem BioAssay AID1240 (Sanford-Burnham Center for Chemical Genomics, 2008)
Among all 50,000 compounds or so, about 800 (1.6%) showed an effect of 50% or more. The list shows a part of the results.

target: Bcl-2-like protein 10 (Homo sapiens) (UniProt Q9HD36); assay: Phenotype converters, Bcl-B/TR3 peptide binding displacement, primary biochemical FP (AID 1240); settings: GST-Bcl-B / FITC-TR3 peptide fluorescence polarization; stronger effect = higher value; compound at 3.75 mg/L;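 also: 0% = Bcl-B with tracer peptide and DMSO and 100% = tracer peptide lacking Bcl-B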
Sequence of UniProt Q9HD36 (Q9HD36 whole entry, looked up): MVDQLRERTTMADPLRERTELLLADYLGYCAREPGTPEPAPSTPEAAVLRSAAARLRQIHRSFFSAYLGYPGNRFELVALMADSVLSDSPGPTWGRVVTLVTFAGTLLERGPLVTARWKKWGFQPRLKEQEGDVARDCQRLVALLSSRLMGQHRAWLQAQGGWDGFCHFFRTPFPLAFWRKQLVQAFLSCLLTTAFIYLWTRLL

| SMILES | displacement [%] |
| --- | --- |
| O=C(O)CCC(=O)Nc1cccc(Oc2ccc3c(c2)C(=O)N(c2cccc(NC(=O)CCC(=O)O)c2)C3=O)c1 | 7.2 |
| O=C(Nc1ccc(NC(=O)c2ccc([N+](=O)[O-])cc2Cl)cc1Cl)c1ccco1 | -2 |
| O=C(N/N=C/c1ccc(OCc2ccccc2)cc1)C(O)c1ccccc1 (configuration not stated) | 3.9 |
| CCCOC(=O)c1c(NC(=O)c2ccccc2OC)sc2c1CCC(C)C2 (configuration not stated) | -5.1 |
| Cc1ccc2c(c1)-c1c(ssc1=S)C(C)(C)N2C(=O)COc1nc2ccccc2s1 | -3.4 |
| Clc1ccc(CSc2ncn[nH]2)cc1 | 11.8 |
| Clc1ccc(OCC2COCCO2)cc1 (configuration not stated) | 5.7 |
| COc1ccc(/C=N/NC(=O)c2cccc(Cl)c2)c2ccccc12 | -9.7 |
| CC(=O)c1ccc(N=C2c3ccccc3C(=O)C2c2ccc3ccccc3c2)cc1 (configuration not stated) | 2.8 |
| O=C1ON=C(c2ccc(Cl)cc2)/C1=C/c1ccccc1Cl | -4.6 |
| COc1ccc(Cc2c(O)nc(SCC(=O)Nc3ccc(OC)cc3)[nH]c2=O)cc1 | -3.8 |
| O=C(NC(Nc1ccc(I)cc1)C(=O)c1ccccc1)c1ccco1 (configuration not stated) | -3.6 |
| O=C(N/N=C\c1ccccc1O)c1cc(-c2ccccc2)nc2ccccc12 | -0.6 |
| Cc1cc2c(cn1)/C(=C\C=C\N(C)C)c1ccccc1-2 | -5.8 |
| O=C(c1cc([N+](=O)[O-])ccc1F)n1nnc2ccccc21 | 8.3 |
| CC1=C(C(=O)OC2CCCC2)C(c2cccc(O)c2)C2=C(CC(c3ccc(Cl)cc3)CC2=O)N1 (configuration not stated) | -22.9 |
| COc1ccc2ccccc2c1C1NN=C(c2ccc(C)cc2)S1 (configuration not stated) | -6.3 |
| O=C(COc1ccc(Cl)cc1)N/N=C/c1ccc(I)o1 | -6 |
| Cc1cc(C)nc(NN2C(=O)/C(=C/c3ccccc3)SC2=S)n1 | -25.2 |
| COc1cc(/C=C/c2nc(O)c([N+](=O)[O-])c(=O)[nH]2)ccc1OCc1ccccc1 | 18.3 |
| COc1ccc(-c2cc(/N=C/C(C(C)=O)=C(\C)O)n(-c3ccccc3)n2)cc1 | -0.2 |
| COc1ccc(Cl)cc1NC(=O)CSCc1cccc(Br)c1 | 1 |

| SMILES | displacement [%] |
| --- | --- |
| O=C(Nc1ccccn1)c1cc(S(=O)(=O)N2CCOCC2)ccc1Cl | 11.7 |
| CC(=O)C1=C(O)C(=O)N(CC2CCCO2)C1c1ccc(Br)cc1 (configuration not stated) | 0.5 |
| O=C1NC(=S)N/C1=C/c1cc([N+](=O)[O-])ccc1Cl | 19.8 |
| CC(C)NC(=O)c1cnn2c1NC(c1ccc(Br)cc1)CC2C(F)(F)F (configuration not stated) | 0.6 |
| Cc1ccc(-n2c(C)cc(/C=N/NC(N)=S)c2C)cc1 | -19.1 |
| Cc1ccccc1SCCNC(=O)c1ccccc1I | -23.9 |
| NNC(=Nc1ccccc1)c1ccccn1 | 3.2 |
| COc1cc(C(=O)NC(NC(=S)Nc2cccc(C)c2)C(Cl)(Cl)Cl)cc(OC)c1OC (configuration not stated) | 5.9 |
| O=C1N/C(=N/N=C/c2ccccc2)SC1Cc1ccccc1Cl (configuration not stated) | 15.6 |
| COc1ccc(NC(=O)CCc2ccccc2)cc1Cl | -2.5 |
| NC(=O)c1cccc(N2C(=O)C=CC2=O)c1 | -6 |
| CC1CCN(S(=O)(=O)c2ccc(NC(=O)c3ccc([N+](=O)[O-])cc3)cc2)CC1 | 14.1 |
| COc1cccc(C2C(C(=O)OC3CCCC3)=C(C)NC3=C2C(=O)CC(C)(C)C3)c1 (configuration not stated) | 3.3 |
| CN(C)CCNC(=O)C(=O)NC(c1ccccc1)c1ccccc1 | -15.6 |
| COc1cccc(-c2nc(-c3ccc(Br)cc3)no2)c1 | -4.2 |
| O=C(O)c1ccccc1C(=O)Nc1cccc(-c2cn3ccccc3n2)c1 | 7.5 |
| O=C1/C(=C\c2ccc(-c3ccc([N+](=O)[O-])cc3Cl)o2)SC(=S)N1Cc1ccccc1 | -5.1 |
| CCCCOC(=O)CNc1nnc(SCC(=O)OCC)[nH]c1=O | -7.7 |
| C/C(O)=C/c1nc2ccccc2n(-c2ccccc2)c1=O | 1.8 |
| O=C(NC(Cc1ccccc1)C(=O)NCc1ccco1)OCc1ccccc1 (configuration not stated) | 35.9 |
| CCOc1ccc(C(=O)Nc2cccc3nsnc23)cc1 | 2.9 |
| Nc1ccc(C(=O)Nc2cccc(-c3nc4ccccc4o3)c2)cc1 | -4.5 |

| SMILES | displacement [%] |
| --- | --- |
| O=C(/C=C/c1ccc2c(c1)OCO2)Nc1ccc(F)c(F)c1 | 23.7 |
| CCOc1ccc(N2C(=O)C(C)C(Cc3cc(C)cc(C)c3)C2=O)cc1 (configuration not stated) | -3.3 |
| COc1ccc(-n2nc3cc(C)c(NC(=O)c4cc(I)ccc4Cl)cc3n2)cc1 | 7 |
| COc1ccc(S(=O)(=O)N2CCN(Cc3cccnc3)CC2)cc1 | -14.6 |
| CC(C)c1ccc(NC(=O)c2c(Cl)cccc2Cl)cc1 | 11.9 |
| CCOc1ccc(N2C(=O)S/C(=C\c3ccc(F)cc3)C2=O)cc1 | -7 |
| C=CCn1c(-c2ccccc2)c(NC(=O)c2ccco2)sc1=Nc1ccccc1Cl | 3.9 |
| Cn1c(O)c(/C=C2/C=CC=N2)c(=O)n(-c2ccccc2)c1=S | 19.6 |
| O=C(c1nc2nc(-c3ccccc3)cc(C(F)(F)F)n2n1)N1CCN(Cc2ccccc2)CC1 | -12.6 |
| COc1ccccc1CN1CCN(C(=O)c2ccc(-c3ccccc3)cc2)CC1 | -2.1 |
| c1cncc(CN2CCN(Cc3ccco3)CC2)c1 | -10.5 |
| CCCCCN1C(=O)/C(=C2\SC(=S)NC2=O)c2ccccc21 | 5.2 |
| N/C(=N\OC(=O)COc1ccc(Cl)cc1Br)c1cccnc1 | -8 |
| O=C(NC(=S)Nc1cccc(NC(=O)c2ccco2)c1)c1ccc(Cl)cc1 | -4.8 |
| O=C(Nc1ccccc1C(=O)O)c1ccc(N2C(=O)c3cccc([N+](=O)[O-])c3C2=O)cc1 | 5.9 |
| COC(=O)/C(=C/C(=O)c1ccc(Cl)cc1)Nc1ccc(OC)cc1 | -19.5 |
| O=C(Cc1ccccc1)Nc1ccc2nn(-c3ccc(F)cc3)nc2c1 | 6.3 |
| COC(=O)c1c(NC(=O)C2CC=CCC2C(=O)O)sc2c1CCC(C(C)(C)C)C2 (configuration not stated) | 1.4 |
| COC(=O)c1ccccc1NC(=O)c1c(C)c(-c2ccc(C)cc2)nc2ccccc12 | -51.1 |
| COc1ccccc1C(=O)NN1C(=O)/C(=C/c2cccc(Br)c2)SC1=S | 43.6 |
| CCCc1noc(-c2ccccc2Cl)n1 | 17 |
| O=C(CCn1c2ccccc2c2ccccc21)N/N=C/c1ccccc1O | 0.8 |

| SMILES | displacement [%] |
| --- | --- |
| COc1ccc(CN2CCN(C(=O)c3cccs3)CC2)cc1Br | 3.6 |
| Cc1ccc(OCC(=O)NCc2ccccc2Cl)c(C)c1 | 6.6 |
| C=CCn1c2ccccc2n2nc(C)c(C(=O)/C=C/c3ccccc3[N+](=O)[O-])c12 | 2.7 |
| COc1cc([N+](=O)[O-])ccc1NC(=O)COc1ccccc1Cl | -2.8 |
| O=C(/C=C/c1ccco1)NC(=S)N(Cc1ccccc1)c1ccccc1 | 15.4 |
| C/C(CC(=O)Nc1ccccc1C(N)=O)=N\NC(=O)c1ccoc1C | -5.2 |
| COC(=O)c1cc(NC(=O)/C=C/c2ccc(Cl)cc2)cc(C(=O)OC)c1 | 15.4 |
| O=C(Nc1ccc(S(=O)(=O)Nc2nccs2)cc1)c1ccc(Cl)c(Cl)c1 | 0.3 |
| COc1ccc(C2Nc3ccccc3NC3=C2C(=O)CC(C)(C)C3)cc1OCc1ccccc1 (configuration not stated) | -0.1 |
| COc1ccc(/C=C/C(=O)c2ccc(Cl)cc2)cc1OC | -2.7 |
| Cc1ccc(NC(=O)CCCN(C)S(=O)(=O)c2ccc(C)cc2)cc1 | 10.3 |
| CC(=O)c1c(OC(=O)c2ccc(Cl)cc2[N+](=O)[O-])ccc2c(C)cc(=O)oc12 | 9.4 |
| O=C(O)CC1S\C(=N/N=C\C=C/c2ccccc2)N(c2ccc(O)cc2)C1=O (configuration not stated) | 12.5 |
| COc1ccc(-c2cc(-c3ccccc3)[nH]c(=O)n2)cc1OC | -5.4 |
| CCCOc1ccc(N2C(=O)CC(Nc3ccc(OC(F)(F)F)cc3)C2=O)cc1 (configuration not stated) | -4.8 |
| O=c1/c(=C/c2ccc(Oc3ccc(C(F)(F)F)cc3[N+](=O)[O-])c(Cl)c2)sc2nc3ccccc3n12 | 17.2 |
| COc1ccc(N(CC(=O)N/N=C/c2ccc(OC3CSC3)cc2)S(=O)(=O)c2ccccc2)cc1 | 3.9 |
| Cc1cc(=O)n2[nH]c(-c3cccs3)cc2n1 | 13.8 |
| N=c1n(CC(=O)O)c2ccccc2n1Cc1ccc(Cl)cc1 | -4 |
| COc1ccc(CC(=O)N(C)CC(OC)OC)cc1 | 5.1 |
| COc1ccc2c(c1)-c1c(ssc1=S)C(C)(C)N2C(=O)CSc1ncn[nH]1 | 13.1 |
| CCOc1cc(C=C2C(=O)NC(=S)NC2=O)ccc1OCCOCCOc1ccc(C)cc1 | -5.2 |

| SMILES | displacement [%] |
| --- | --- |
| O=C(CSc1ncccn1)N/N=C/c1ccccc1[N+](=O)[O-] | -1.6 |
| CCN(CC)c1ccc(/C=N/Nc2nc(-c3cc4cccc(OC)c4oc3=O)cs2)c(O)c1 | -7.3 |
| O=C(NNS(=O)(=O)Cc1ccccc1)c1ccc([N+](=O)[O-])cc1 | 7.5 |
| CCCCOC(=O)Cn1c(=N)n(CCN2CCOCC2)c2ccccc21 | 11.6 |
| O=C(NCC(O)CNC(=O)C(F)(F)C(F)(F)F)C(F)(F)C(F)(F)F | -4.5 |
| CCOc1ccccc1NC(=O)c1c(NC(=O)c2ccccc2Cl)sc2c1CCC2 | 5.6 |
| CCCc1ccc(-c2nc(-c3ccc(F)cc3)no2)cc1 | -6.8 |
| COc1ccccc1OCCn1cc(C=O)c2ccccc21 | -4.5 |
| O=C(NCCCO)C(=O)Nc1ccc(F)cc1 | 10.5 |
| COc1c(-c2cc(-c3ccccc3)n[nH]2)c(O)c(OC)c2occc12 | 8.3 |
| CCC(C)c1ccc(NC(=O)c2c(-c3ccccc3Cl)noc2C)cc1 (configuration not stated) | 8.5 |
| CCCOc1ccc(N2C(=O)CC(N(CCc3ccc(OC)c(OC)c3)C(=O)CC)C2=O)cc1 (configuration not stated) | -2.6 |
| Cc1c(NC(=S)NCCc2ccccc2)c(=O)n(-c2ccccc2)n1C | -5 |
| CC(=O)n1nc(C)c2c(-c3ccccc3)c3cc(Br)ccc3nc21 | 3.7 |
| Cc1cc2c(nc3s/c(=C/c4ccccc4)c(=O)n32)c(Br)c1C | -4.6 |
| COc1ccccc1NC(=O)c1cc2cccc(OC)c2oc1=O | -2.8 |
| COc1cccc2sc(NC(=O)c3ccc(C)cc3)nc12 | 2.1 |
| CC(C)(C)C1(C)OC(O)(C(F)(F)F)CC1=O (configuration not stated) | -12.7 |
| CS/C(=N\S(=O)(=O)c1ccc(C)cc1)c1ccccc1 | 6 |
